# Paper PMC3927877 (Nature Communications, 2013)
# B1: STIM1 CC1_([TM-distal])-CC2-CC3 ([…]) (domain or fragment)
# chain: not shown
# Target: the molecule itself
# Test: SEC-MALS
protein,measurement,value
B1,binding result,binds
